From paper PMC4336329 (PLoS ONE, 2015)
Among all 310,000 compounds or so, about 14,000 (4.5%) showed an effect of 50% or more. Effects have a minus sign here. This is one part of the list.

biological target: human ether-à-go-go-related gene (hERG) potassium channel (human, UniProt Q12809); test: primary screen, population patch clamp on CHO cells stably expressing hERG
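Note: peak tail current of the secondary pulse compared with the same well before compound.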

Chain of human ether-à-go-go-related gene (hERG) potassium channel (Q12809 whole entry, looked up): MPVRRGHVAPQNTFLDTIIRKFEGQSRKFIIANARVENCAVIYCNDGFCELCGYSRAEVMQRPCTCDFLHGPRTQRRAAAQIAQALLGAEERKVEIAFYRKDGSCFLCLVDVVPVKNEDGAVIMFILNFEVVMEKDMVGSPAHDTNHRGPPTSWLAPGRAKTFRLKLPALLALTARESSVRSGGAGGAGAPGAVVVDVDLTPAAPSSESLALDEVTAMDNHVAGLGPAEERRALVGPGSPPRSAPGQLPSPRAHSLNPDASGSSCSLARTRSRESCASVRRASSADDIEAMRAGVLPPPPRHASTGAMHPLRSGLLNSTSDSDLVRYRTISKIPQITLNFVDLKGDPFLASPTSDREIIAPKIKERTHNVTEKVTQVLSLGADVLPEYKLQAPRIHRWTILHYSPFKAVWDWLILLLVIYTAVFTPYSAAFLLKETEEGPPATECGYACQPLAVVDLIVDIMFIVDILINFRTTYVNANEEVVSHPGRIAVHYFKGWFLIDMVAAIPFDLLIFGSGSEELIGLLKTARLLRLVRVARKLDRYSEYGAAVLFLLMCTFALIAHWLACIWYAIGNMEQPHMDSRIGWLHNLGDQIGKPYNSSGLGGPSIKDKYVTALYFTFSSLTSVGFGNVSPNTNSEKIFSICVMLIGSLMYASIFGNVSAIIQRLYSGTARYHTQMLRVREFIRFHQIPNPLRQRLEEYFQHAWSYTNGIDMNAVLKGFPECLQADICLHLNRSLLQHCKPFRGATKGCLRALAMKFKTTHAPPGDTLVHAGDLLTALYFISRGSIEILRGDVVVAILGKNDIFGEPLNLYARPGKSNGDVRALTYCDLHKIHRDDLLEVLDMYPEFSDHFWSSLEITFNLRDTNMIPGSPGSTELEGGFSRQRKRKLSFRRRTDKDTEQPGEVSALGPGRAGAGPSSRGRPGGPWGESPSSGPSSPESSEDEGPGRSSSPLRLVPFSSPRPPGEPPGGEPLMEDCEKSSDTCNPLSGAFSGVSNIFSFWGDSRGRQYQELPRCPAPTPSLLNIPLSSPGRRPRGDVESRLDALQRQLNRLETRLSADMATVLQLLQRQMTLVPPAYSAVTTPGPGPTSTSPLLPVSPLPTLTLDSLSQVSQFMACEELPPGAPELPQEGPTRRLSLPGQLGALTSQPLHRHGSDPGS

Compound | hERG current change (%, negative = inhibition) at 10uM [%]
CCN(CC)S(=O)(=O)c1cccc(C(=O)N/N=C(\C)c2cccs2)c1 | 17.3
Cc1cc(NC(=O)CCN2CCN(Cc3ccccc3)CC2)ccc1Br.Cl | -28
Cl.OC(COCc1ccc2c(c1)OCO2)CN1CCCCC1 (stereo not shown) | -2.96
Cc1ccc(NC(=O)CSc2ccc(Br)cc2)cc1S(=O)(=O)N1CCOCC1 | -30.9
COCCn1c(SCC(=O)Nc2ccc(F)cc2F)nc2c([nH]c3ccccc32)c1=O | 8.08
O=C(CN1CCN(c2nc(-c3ccccc3)cs2)CC1)NNC(=O)c1ccco1 | 0.128
N#CCCOC1(C#CCN2CCCC2)CCCCC1 | 19.6
Cc1ccc(C(=O)c2coc3ccc(O)c(CN4CCN(C)CC4)c23)cc1 | -51.2
CS(=O)(=O)N1CCN(c2ccccc2NC(=O)c2cccc3ccccc23)CC1 | -29.6
COC(=O)Oc1ccc(/C=N/NS(=O)(=O)c2ccccc2)cc1OC | 21.2
O=C(CSc1nc2ccccc2o1)N/N=C/c1ccco1 | -3.55
COC(=O)[C@@H]1C[C@@]2(O)[C@H](O)[C@H](O)[C@H](O)C[C@H]2N1Cc1cccc2ccccc12 | 16
O=C(COc1ccccc1[N+](=O)[O-])N/N=C/c1ccc(OC(=O)c2ccco2)cc1 | 0.35
CCOc1ccc(Cn2c(=O)sc3ccccc32)cc1 | 12.6
CC12CCC(C1)C(C)(C)C2OC(=O)c1ccccc1C(=O)O (stereo not shown) | 18.3
COc1cccc(N(C(=O)Cn2nnc(-c3ccc(Cl)cc3)n2)C(C(=O)NCC2CCCO2)c2ccc(C)cc2)c1 (stereo not shown) | 22
O=C(O)c1cc(-n2nnnc2SCc2ccc([N+](=O)[O-])cc2)ccc1Cl | 12.3
Cc1ccc(Cl)cc1NC(=O)CNC(=O)N1CC(=O)Nc2ccccc21 | -5.91
COc1ccc(NC(=O)Cn2c(=O)cnc3ccccc32)cc1S(=O)(=O)N1CCCCC1 | -10.9
CCOC(=O)CSc1nc2ccccc2c(=O)n1CC1CCCO1 (stereo not shown) | -6.58
O=C1CC(c2ccc3c(c2)OCCO3)Oc2ccc([N+](=O)[O-])cc21 (stereo not shown) | -1.11
Cc1cc2nc(/C=C/c3nc4cc(C)c(C)cc4[nH]3)[nH]c2cc1C | 25.9
CCN(CC)CCN1C(=O)C(=O)/C(=C(/O)c2ccc(S(=O)(=O)N3CCOCC3)cc2)C1c1ccc(C)cc1 (stereo not shown) | 18
COCCN(Cc1cc2cc(C)ccc2n2nnnc12)C(=S)Nc1ccc(C)cc1 | -6.18
CC(C)(C)NC(=O)CSC(=Nc1cccc(F)c1)NC#N | 8.94
COc1ccc(OC)c(NC(=S)NCc2ccco2)c1 | -3.95
CCN(CC)c1ccc2nc3ccccc3[n+](CC)c2c1.[I-] | -24.7
CCO[C@H]1OC(C(=O)NCc2ccccc2)=C[C@@H](c2ccc(Br)cc2)[C@@H]1CCCO | -26.2

Compound | hERG current change (%, negative = inhibition) at 10uM [%]
O=C(CSc1nnc(-c2ccccc2Cl)o1)Nc1ccc2c(c1)OCCO2 | -5.63
CC(=O)c1c(O)cc(C)oc1=O | 25.5
CCCCN1CCNC[C@@H]1c1ccccc1 | 19
CN1/C(=C\C=Nc2ccc3ccccc3c2)C(C)(C)c2ccccc21 | -74.8
COc1cc(CCN2C(=O)c3cccc4cccc(c34)C2=O)c(S(=O)(=O)N2CCC(C)CC2)cc1OC | -24.6
CCOc1ccc(NC(=O)c2oc3ccccc3c2NC(=O)CC)cc1 | -20.6
CN(C)/C=C/C(=O)c1cnc(-c2ccccc2Cl)s1 | -35.8
CC(c1ccccc1)n1c(S(=O)(=O)O)nc2ccccc21 (stereo not shown) | 11.1
CCCc1noc2c1C(c1cc(Br)ccc1F)C(C#N)=C(N)N2 (stereo not shown) | 12
COc1ccc(CCNC(=O)COC(=O)c2cc(OC)c(OC)cc2OC)cc1OC | 2.88
COc1ccc(Cn2c(=O)[nH]c3cc(C(=O)N4CCN(c5ccc(OC)cc5)CC4)ccc3c2=O)cc1 | 10.1
COc1ccc(C(NC(C)=O)c2cc(Cl)c3cccnc3c2O)cc1 (stereo not shown) | 10.6
CCCCn1nnc(NC(=O)c2ccc(-c3cccc([N+](=O)[O-])c3)o2)n1 | -68.5
COc1cc2c(cc1OC)C(c1cccc(Cl)c1Cl)CC(=O)N2 (stereo not shown) | 11.6
CC1=C(C#N)C(=O)OC(C)(C)C1 | 14.3
CCOC(=O)c1sc2nccc(OC)c2c1N=CN(C)C | 10.2
COc1ccc(-c2noc3c2-c2nc(-c4ccc(C)cc4)sc2CC3)cc1 | 20.2
COc1cccc(CN(C)C(=O)C2CCN(S(=O)(=O)c3ccc(C)cc3)CC2)c1OC | -13
CN(C)c1ncnc(N(C)C)c1[N+](=O)[O-] | 7.45
CC(=O)c1c(C)[nH]c(C(=O)CSc2nnc3ccccn23)c1C | -3.82
CCCc1cc(=O)[nH]c(SC(C)C(=O)Nc2ccc3c(c2)OCCO3)n1 (stereo not shown) | -7.38
CC(Cc1cccs1)NCc1ccc(Cl)cc1 (stereo not shown) | -15.7
COc1cc(/C=C2/C(=O)NN(c3cccc(F)c3)C2=O)ccc1OC(=O)c1ccco1 | -32.5
CC(C)CNC(=S)N1CCN(Cc2ccc3c(c2)OCO3)CC1.O=C(O)C(=O)O | -29.3
Cc1cccc(C)c1NC(=O)NC1(C(=O)N2CCCCC2)CCCCC1 | 4.77
N=c1cc(C2(O)CCCCC2)n2c(nc3ccccc32)s1 | -20.7
Cc1cccc(S(=O)(=O)NCCc2ccccc2)c1 | -2.12
